From US10654915B2, “Antibodies useful in passive influenza immunization” (priority 2011, dated 2020)

Tested on: H1N1 (A/California/04/2009)
Assay: Inhibition of infection and plaque formation in MDCK cell monolayers with or without trypsin
Format: cell-based, influenza A
Settings: FIG. 4A

B1: MAB486 (antibody, V domains shown)
VH: QVQLVESGGGMVQPGGSRRLSCAASGFSFSTYGMHWVRQAPGKGLEWVAVISYDGEKQYYLDSVKGRFTISRDNSKDTLYLQMNSLTAEDTAVYYCVKESARRLLRYFEWLLSSPFDNWGQGALVTVSS
VL: DIVMTQSPDSLAVSLGERATINCKSSQTVLYTSNKKNYLAWYQQKPGQPPKLLIYWASTRESGVPDRFSGSGSGTDFTLTISSLQAEDVAVYYCQQYYTSPYTFGQGTKLEIK
modifications: CHAIN (1)...(129) MAB486 heavy chain sequence of variable domain; CHAIN (1)...(113) MAB486 light chain sequence of variable domain
B1 was tested. Which “neutralization in presence or absence of trypsin” value did it give?
Its value is “only in the absence of trypsin”.
